Test results published in paper PMC4336329 (PLoS ONE, 2015).
About 2,200 (0.71%) of roughly 310,000 compounds showed an effect of 50% or more. Effects have a minus sign here. The list shows a part of the results.

The molecules below were run against human ether-à-go-go-related gene (hERG) potassium channel (human, UniProt Q12809) (assay: primary screen, population patch clamp on CHO cells stably expressing hERG).
human ether-à-go-go-related gene (hERG) potassium channel, sequence (Q12809 whole entry, looked up): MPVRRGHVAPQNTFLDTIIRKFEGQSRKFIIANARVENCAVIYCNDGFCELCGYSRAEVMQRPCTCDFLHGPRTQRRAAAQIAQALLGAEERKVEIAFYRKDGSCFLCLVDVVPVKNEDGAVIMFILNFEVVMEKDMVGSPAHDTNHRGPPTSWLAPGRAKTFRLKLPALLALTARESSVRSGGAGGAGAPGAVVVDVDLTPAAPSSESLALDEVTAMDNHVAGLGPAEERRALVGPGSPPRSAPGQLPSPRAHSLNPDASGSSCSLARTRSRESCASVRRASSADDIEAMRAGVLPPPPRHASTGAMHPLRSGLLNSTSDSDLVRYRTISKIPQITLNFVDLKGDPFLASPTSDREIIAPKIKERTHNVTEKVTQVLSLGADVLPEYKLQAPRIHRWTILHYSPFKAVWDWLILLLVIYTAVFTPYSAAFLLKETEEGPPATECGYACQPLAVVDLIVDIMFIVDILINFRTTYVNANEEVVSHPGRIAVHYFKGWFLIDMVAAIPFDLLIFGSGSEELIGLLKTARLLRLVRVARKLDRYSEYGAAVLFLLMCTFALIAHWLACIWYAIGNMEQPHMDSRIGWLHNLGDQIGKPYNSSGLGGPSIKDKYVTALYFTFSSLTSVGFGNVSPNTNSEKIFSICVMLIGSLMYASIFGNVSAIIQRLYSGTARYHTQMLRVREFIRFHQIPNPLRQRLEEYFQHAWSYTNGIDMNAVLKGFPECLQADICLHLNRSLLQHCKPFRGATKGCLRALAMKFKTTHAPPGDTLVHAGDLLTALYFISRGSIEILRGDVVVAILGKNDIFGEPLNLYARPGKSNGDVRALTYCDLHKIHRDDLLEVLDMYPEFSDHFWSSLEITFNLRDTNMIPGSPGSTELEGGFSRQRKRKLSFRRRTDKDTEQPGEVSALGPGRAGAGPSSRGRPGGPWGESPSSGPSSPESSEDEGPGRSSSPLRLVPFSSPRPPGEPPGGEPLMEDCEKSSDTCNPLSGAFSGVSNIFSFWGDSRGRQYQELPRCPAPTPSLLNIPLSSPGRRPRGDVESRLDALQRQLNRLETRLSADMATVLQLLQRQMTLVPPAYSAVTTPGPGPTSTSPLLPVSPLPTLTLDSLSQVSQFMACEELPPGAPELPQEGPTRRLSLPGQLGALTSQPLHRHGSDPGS

In order of rising “hERG current change (%, negative = inhibition) at 1uM” value:
1. O=C(CCN1CCN(C/C=C/c2ccccc2)CC1)Nc1cccc(F)c1  -62.6%
2. CCOC(=O)c1oc2ccccc2c1CN1CCN(C)CC1.Cl  -50.2%
3. O=C(CSc1nc(=O)n(CCCN2CCOCC2)c2c1CCCC2)Nc1ccc(Cl)cc1  -48.1%
4. COc1ccc2c(c1)CCc1c(C(=O)Nc3cc(C)n(Cc4ccc(Cl)cc4)n3)noc1-2  -13.9%
5. O=S(=O)(Nc1ccc2c(c1)OCCO2)c1cccc2cccnc12  -7.42%
6. COC(=O)c1cc(OC)c(OC)c(OC)c1[N+](=O)[O-]  -5.53%
7. Cc1cc(Cl)c(OCCCNCc2ccccc2)c(Br)c1.O=C(O)C(=O)O  -5.37%
8. CCOc1ccccc1C(C(=O)NC1CCCCC1)N(C(=O)c1csnn1)C1CC1 (centres unmarked)  -4.46%
9. CCOC(=O)N1CCN(C(=O)c2oc3ccc(S(=O)(=O)N4CCCCCC4)cc3c2C)CC1  -2%
10. CCOC(=O)C1C(=O)CC(C)(O)C(C(=O)OCC)C1c1ccc(OC)cc1 (centres unmarked)  -0.912%
11. COc1ccc(CCNC(=O)C2CCN(S(=O)(=O)c3ccc(-n4cnnn4)cc3)CC2)cc1OC  -0.826%
12. COc1ccc(N=Cc2c(O)n(-c3cccc(C)n3)c(=O)c3ccccc23)cc1  0.0617%
13. COc1cccc(-n2nnnc2SCC(=O)Nc2ccccc2OC)c1  1.56%
14. CC1(C)C2CCC1(C)C1(C2)NC(=O)c2ccccc2O1 (centres unmarked)  1.79%
15. Cc1ccc(-n2c(SCC(=O)Nc3ccc4cn[nH]c4c3)nnc2-c2ccco2)cc1  2.41%
16. Cc1cc(=O)oc2cc(OCC(=O)OCC(=O)N3CCc4ccccc43)ccc12  2.83%
17. Cc1ccc(OC(C)c2nnc(N)s2)cc1Cl (centres unmarked)  5.17%
18. CC1CCN(c2c([N+](=O)[O-])c(=O)oc3ccccc23)CC1  6.58%
19. CCOC(=O)C1(Cc2ccccc2C)CCCN(C(=O)c2ccnn2C)C1 (centres unmarked)  7.07%
20. COc1ccccc1NS(=O)(=O)c1cccs1  7.98%
21. N#Cc1ccc(C(=O)Nc2nnc(-c3ccccn3)o2)cc1  8.13%
22. O=C(Cc1c(Cl)cccc1Cl)NC1=NCCS1  9.14%
23. CCCC(=O)Nc1cc(OC)c(C(=O)OC)cc1Cl  10.2%
24. CCc1ccc(Cn2nnc(C(=O)Nc3ccc(OC)cc3OC)c2N)cc1  10.3%
25. COc1cc(NC(=O)COC(=O)/C=C/c2ccc(Cl)cc2Cl)cc(OC)c1  10.4%
26. CCc1n[nH]c(=S)n1/N=C/c1ccccn1  11.1%
27. O=C1CCCC2=C1Sc1ccc(Cl)cc1N2  11.7%
28. CC(C)(C)c1ccc(S(=O)(=O)C(C)(C)C)cc1  11.8%
29. O=C(C1CCN(S(=O)(=O)c2cccc3nsnc23)CC1)N1CC=C(c2ccccc2)CC1  12%
30. CN(Cc1ccncn1)C(=O)C1CCC(=O)N(Cc2cccc(C(F)(F)F)c2)C1 (centres unmarked)  12.3%
31. O=C(c1ccco1)N1CCCC(Nc2ccc3c(c2)OCCO3)C1 (centres unmarked)  12.6%
32. CCS(=O)(=O)n1nc(-c2ccccc2)nc1SCc1ccccc1  12.7%
33. O=C(CCCSc1nnc(Nc2ccccc2F)s1)N1CCOCC1  12.9%
34. CCc1nc(NC(C)C)c2oc3ccccc3c2n1.Cl  13.2%
35. Cc1c(-c2ccc(/C=N/NC(=O)C(=O)Nc3ccccc3F)o2)cccc1[N+](=O)[O-]  13.7%
36. COc1ccc(/C=N/N=C2/NC(=O)CC(C(=O)O)S2)cc1 (centres unmarked)  13.7%
37. CCCC(C)C(=O)NCc1ccccc1OC (centres unmarked)  13.7%
38. O=C(COC(=O)c1cc2c(s1)CCCCC2)NC1CCS(=O)(=O)C1 (centres unmarked)  14.2%
39. Cc1ccc(CNC(=O)C(CC(C)C)OC(=O)c2ccco2)cc1 (centres unmarked)  15.2%
40. Cc1ccccc1-c1cc(C(=O)Nc2sc(C(=O)OC(C)C)c(C)c2C#N)c2ccccc2n1  15.6%
41. CCOC(=O)c1sc(-c2ccc(C)cc2)c(C#N)c1C  15.7%
42. O=C(COC(=O)/C=C/c1ccc(C(F)(F)F)cc1)NCC1CCCO1 (centres unmarked)  16.4%
43. CCOC(=O)C1CCCN(C(=O)CSc2nc(C)cc(C)n2)C1 (centres unmarked)  16.9%
44. COc1ccc(/C=N/NC(=O)c2ccc(N(C)S(=O)(=O)c3ccccc3)cc2)cc1OC  18%
